# In all, about 310,000 compounds went through this assay and about 2,200 (0.71%) showed an effect of 50% or more. Effects have a minus sign here. The list shows a part of the results.
# Target: human ether-à-go-go-related gene (hERG) potassium channel (human, UniProt Q12809)
# Test: primary screen, population patch clamp on CHO cells stably expressing hERG
# Chain of human ether-à-go-go-related gene (hERG) potassium channel (Q12809 whole entry, looked up): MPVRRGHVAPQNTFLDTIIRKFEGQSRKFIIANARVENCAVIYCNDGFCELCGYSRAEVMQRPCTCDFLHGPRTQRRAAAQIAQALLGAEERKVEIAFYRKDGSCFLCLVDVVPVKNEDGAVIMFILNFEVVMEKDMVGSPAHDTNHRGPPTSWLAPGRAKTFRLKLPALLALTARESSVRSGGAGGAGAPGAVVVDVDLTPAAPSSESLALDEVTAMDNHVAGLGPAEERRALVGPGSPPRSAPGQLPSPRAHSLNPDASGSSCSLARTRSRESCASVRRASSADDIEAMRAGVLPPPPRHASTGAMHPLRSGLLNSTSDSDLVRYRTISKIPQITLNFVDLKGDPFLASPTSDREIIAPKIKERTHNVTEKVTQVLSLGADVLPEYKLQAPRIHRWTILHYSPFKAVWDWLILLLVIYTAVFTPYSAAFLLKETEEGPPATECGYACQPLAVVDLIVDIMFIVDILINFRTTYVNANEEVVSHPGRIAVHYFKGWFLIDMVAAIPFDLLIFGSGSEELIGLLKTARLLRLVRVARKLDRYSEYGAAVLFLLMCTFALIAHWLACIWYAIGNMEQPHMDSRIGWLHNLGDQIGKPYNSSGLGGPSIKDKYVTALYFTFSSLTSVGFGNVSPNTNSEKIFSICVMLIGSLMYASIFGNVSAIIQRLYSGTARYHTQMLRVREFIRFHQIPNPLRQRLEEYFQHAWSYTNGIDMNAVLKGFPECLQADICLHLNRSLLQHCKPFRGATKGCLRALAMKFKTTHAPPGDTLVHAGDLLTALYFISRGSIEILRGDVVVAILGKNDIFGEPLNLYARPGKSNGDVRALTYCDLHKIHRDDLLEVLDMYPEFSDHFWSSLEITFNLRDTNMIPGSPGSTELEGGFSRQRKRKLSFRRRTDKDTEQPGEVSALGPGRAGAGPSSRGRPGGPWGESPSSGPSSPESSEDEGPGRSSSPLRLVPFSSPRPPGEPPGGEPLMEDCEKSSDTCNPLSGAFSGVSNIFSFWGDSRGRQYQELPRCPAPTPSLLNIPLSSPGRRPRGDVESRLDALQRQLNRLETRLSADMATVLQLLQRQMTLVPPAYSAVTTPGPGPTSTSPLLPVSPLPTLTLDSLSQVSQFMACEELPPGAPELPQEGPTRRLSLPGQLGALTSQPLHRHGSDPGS
row,SMILES,"hERG current change (%, negative = inhibition) at 1uM [%]"
1,CCN(CC)C(=O)Cn1cc(C(=O)C(=O)N2CCN(c3ccccc3)CC2)c2ccccc21,6.1
2,O=c1cc(Cl)[nH]n(-c2ccccc2)c1=O,14.8
3,Cc1cccc(CCNC(=O)CCS(=O)(=O)c2cc3c(cc2C)NC(=O)CO3)c1,-7.04
4,CCN(CC)S(=O)(=O)c1cc(NC(=O)C(C)Nc2ccccc2N2CCOCC2)ccc1C (stereo not drawn),14.8
5,CCOc1ccc(CCNC(=O)C2CCCN(c3nnc(-n4cccc4)s3)C2)cc1OCC (stereo not drawn),10.6
6,CN1C(=O)C(=O)/C(=C(/O)c2ccc(Br)cc2)C1c1ccc(F)cc1 (stereo not drawn),-1.35
7,COCCN(C(=O)CCC(=O)Nc1cc(C)on1)C(C(=O)NC1CCCC1)c1ccccc1C (stereo not drawn),16.8
8,CC(=O)NCCOc1nc(N(C)C)nc(N2CCCCC2)n1,-1.33
9,COCCn1c(SCC(=O)c2cccc(OC)c2)nnc1-c1ccco1,0.747
10,O=C(N/N=C/c1ccc(OC(=O)c2ccccc2Cl)cc1)c1ccc(O)cc1,5.47
11,CCOC(=O)C1CCN(C(=O)c2ccc(Cl)c(S(=O)(=O)N3CCOCC3)c2)CC1,-13.7
12,CCOC(=O)C1=C(c2ccccc2)OC(N)=C(C#N)C1c1cccs1 (stereo not drawn),13.7
13,COC(=O)C1N2C(=O)[C@@H](NC(=O)COc3ccccc3)[C@H]2SC1(C)C (stereo partly drawn),10.6
14,CCn1c(SC(C)C(=O)NCC2CCCO2)nc2scc(-c3ccccc3)c2c1=O (stereo not drawn),5.21
15,COC(=O)C1(C(F)(F)F)N=C(N(C)C)OC(N(C)C)=N1,1.67
16,O=C(COC(=O)c1c[nH]c(=O)[nH]c1=O)NCc1ccccc1,-5.77
17,CS(=O)(=O)N(Cc1ccco1)CC(O)Cn1c2ccccc2c2ccccc21 (stereo not drawn),15
18,CC1C2CC(CC1(C)C)N(C(=O)Nc1ccc3nccnc3c1)C2 (stereo not drawn),10.3
19,COc1ccc(S(=O)(=O)N(C)c2ccc(OC(=O)C(C)Oc3ccc(F)cc3)cc2)cc1 (stereo not drawn),2.48
20,CCC(C)NC(=O)[C@@H]1CCCN1C(=O)C1CCN(S(=O)(=O)c2ccc(C)cc2)CC1 (stereo partly drawn),17.8
21,COCC(=O)Nc1ccc(C)c(Cl)c1,9.95
22,CCc1cc(=O)oc2c3c(cc(OCC(=O)Nc4cccnc4)c12)OC(C)(C)CC3,11.5
23,COc1cccc(CN2CC(C(=O)NCCCn3cccn3)CCC2=O)c1 (stereo not drawn),7.66
24,O=C(CSc1nc2cc(Cl)ccc2o1)N1CCOCC1,-0.134

# From paper PMC4336329 (PLoS ONE, 2015)
